{"source": "PubChem BioAssay (NCATS)", "note": "Inconclusive means that the source gave no clear call. Such entries were picked first, then a sample of the others. No potency is given beside an inconclusive call; the fits are too rough. Active and inactive are the calls of the source. Calls follow the shape of the dose curve; as a rule, active = well fitted inhibition curve with a large enough effect; inconclusive = small, poorly fitted or top-dose-only effect; inactive = no such curve, though single readings can be large or run the other way. Potency is read from the fitted curve at half-maximal effect; tags tell the direction and shape of the fitted curve.", "data": [{"assay": "Primary qHTS for inhibitors of La Crosse Virus (LACV) - induced cell death in SH-SY5Y cells (AID 1508616);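 as to activity change: top concentration of the series differs between compounds; 0% = infected DMSO wells and 100% = uninfected DMSO wells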", "conditions": "SH-SY5Y LACV cytopathicity rescue, ATP luminescence, 6 d; activity change: at the top concentration", "excerpt": "Assay Provider: Karin Peterson Ph.D.\nNational Institute of Allergy and Infection Diseases, National Institute of Health\nLa Crosse Virus (LACV) is a California serogroup mosquito-borne arbovirus, family Peribunyaviridae, which is an endemic pathogen in North America and can induce a rare, life-threatening neurological disease in children. LACV was first isolated in the early 1960s, from a summer \"rural encephalitis\" case in La Crosse, Wisconsin, USA. Since then, LACV encephalitis cases have been found in more than twenty states, with most cases in the Mississippi and Ohio River basins. The life cycle of LACV is maintained between the vector, the eastern tree-hole mosquito Aedes triseriatus, and vertebrate hosts including eastern gray squirrels (Sciurus carolinensis) and chipmunks (Tamiasstriatus grinseus). […] Most LACV infections in humans are asymptomatic or induce mild clinical symptoms of fever, headache, lethargy and vomiting. However, in some cases LACV can cause severe neuroinvasive disease, including encephalitis, meningitis, and meningoencephalitis, requiring hospitalization. To date, there is neither a licensed vaccine nor a Food and Drug Administration (FDA) approved antiviral therapy available to prevent or treat LACV encephalitis. The primary treatment for viral encephalitis is palliative care due to the lack of therapeutics. In the current study, we conducted a screen of 4,096 FDA approved and bioactive small molecules against LACV, by screening for rescue of LACV-induced cell death in SH-SY5Y cells.\nLACV-induced cytopathicity assay\nSEQUENCE No. (1,2, 3, etc.); […] (e.g., Cells, Incubation, Reagent, etc.); VALUE and DESCRIPTION.\n1. Reagent; 2 uL; Cell solution.\n3. Compounds; 23nL; Compound library\n4. Reagent; 12 uL; LACV virus\n6. Reagent; 24 uL; ATPLite (PerkinElmer)\n7. Time; 5 min; Room temperature\n8. Detection; Luminescence; View\nNOTES (numbers refer to sequence above)\n1. Seed 6000 SH-SY5Y cells (ATCC CRL-2266) in 2 microL/well media (DMEM/F12 10% FBS, 1x L-Glutamine, 1x Pyruvate, 1x NEAA, 1x Pen/Strep) in 384-well assay plates (tissue culture treated, white, solid bottom).\n2. Incubate at 37 degrees C with 5% CO2 for 24 hr.\n3. Dispense 23 nL/well compounds in DMSO via pin transfer.\n4. Dispense 12 microL/well of LACV (LACV/human/1978) in media at 0.01 MOI.\n5. Incubate at for 6 days at 37C 5% CO2\n6. Dispense 24 microL/well of ATPLite 1step Luminescence assay system (PerkinElmer).\n7. Incubate for 5 min at room temperature.\n8. Read luminescence signal (Viewlux plate reader, PerkinElmer). Data was normalized with DMSO control wells containing LACV as 0%, and DMSO control wells without virus as 100%.", "values": [{"compound": "CS(=O)(=O)CCNCc1ccc(-c2ccc3ncnc(Nc4ccc(OCc5cccc(F)c5)c(Cl)c4)c3c2)o1", "activity change": "inactive: 58.6%"}, {"compound": "COc1cccc2c1C(=O)c1c(O)c3c(c(O)c1C2=O)C[C@@](O)(C(=O)CO)C[C@@H]3O[C@H]1C[C@H](N)[C@H](O[C@@H]2CCCCO2)[C@H](C)O1", "Potency": "inconclusive [inhibitor, partial curve, poor fit]"}, {"compound": "NNc1nncc2ccccc12", "Potency": "inconclusive [inhibitor, partial curve, poor fit]"}, {"compound": "Nc1ccc(-c2ccc3ccccc3n2)cc1", "activity change": "inactive: -19.7% [at 9.63 µM]"}, {"compound": "COc1cc2c(cc1O)CC[C@@H]1[C@@H]2CC[C@]2(C)[C@@H](O)CC[C@@H]12", "Potency": "active: 631 nM"}, {"compound": "CCOC(=O)N1CCN(/[N+]([O-])=N/Oc2ccc([N+](=O)[O-])cc2[N+](=O)[O-])CC1", "Potency": "inconclusive [inhibitor, full curve, poor fit]"}, {"compound": "O=C1C(SCCO)=C(SCCO)C(=O)c2ccccc21", "Potency": "inconclusive [inhibitor, partial curve, poor fit]"}, {"compound": "C=CC(N)CCC(=O)O", "note": "(stereo not given)", "activity change": "inactive: 10.5% [at 9.63 µM]"}, {"compound": "CC1(C)CCC2=C(O1)c1ccccc1C(=O)C2=O", "Potency": "inconclusive [inhibitor, single point]"}, {"compound": "OC[C@H]1O[C@@H](n2cnc3c(NC4CCCCC4)ncnc32)[C@H](O)[C@@H]1O", "Potency": "inconclusive [inhibitor, full curve, poor fit]"}, {"compound": "CNCCCCOc1ccccc1Cc1ccccc1", "activity change": "inactive: -20.1%"}, {"compound": "O=C(O)c1cccc(-c2noc(-c3ccccc3F)n2)c1", "activity change": "inactive: -25.4%"}, {"compound": "O=c1cc(N2CCOCC2)oc2c(-c3ccccc3)cccc12", "Potency": "inconclusive [inhibitor, single point]"}, {"compound": "COC(=O)Nc1nc2ccc(C(=O)C3CC3)cc2[nH]1", "Potency": "inconclusive [inhibitor, partial curve, poor fit]"}, {"compound": "Cc1ccc(S(=O)(=O)/C=C/C#N)cc1", "Potency": "active: 1410 nM"}, {"compound": "CCCCc1ccc2nc(NC(=O)OC)[nH]c2c1", "activity change": "inactive: -83.8%"}, {"compound": "CN(C)c1ccc(C(=C2C=CC(=[N+](C)C)C=C2)c2ccccc2)cc1", "Potency": "inconclusive [inhibitor, full curve, poor fit]"}, {"compound": "O=C(O)c1cc(=O)c2c(Cl)cc(Cl)cc2[nH]1", "activity change": "inactive: -11.2% [at 9.63 µM]"}, {"compound": "Oc1cc(O)cc(/C=C/c2ccc(O)c(O)c2)c1", "Potency": "active: 3160 nM"}, {"compound": "CNCC(O)c1ccc(O)c(O)c1", "note": "(stereo not given)", "Potency": "inconclusive [inhibitor, single point]"}, {"compound": "O=C(Nc1ccc([N+](=O)[O-])cc1Cl)c1cc(Cl)ccc1O", "Potency": "inconclusive [inhibitor, full curve, poor fit]"}, {"compound": "CN1CCN(C2=Nc3cc(Cl)ccc3Nc3ccccc32)CC1", "Potency": "inactive"}, {"compound": "O=c1cc(-c2ccc(O)cc2)oc2cc(O)cc(O)c12", "activity change": "inactive: 12.6% [at 9.63 µM]"}, {"compound": "CCCCCCCCCCCCCCCC(=O)NCCO", "Potency": "inactive"}, {"compound": "COc1ccc2cc([C@H](C)C(=O)O)ccc2c1", "Potency": "inconclusive [inhibitor, partial curve, poor fit]"}, {"compound": "OC(CN1CCC(Cc2ccc(F)cc2)CC1)c1ccc(Cl)cc1", "note": "(stereo not given)", "Potency": "inconclusive [inhibitor, partial curve, poor fit]"}, {"compound": "COC(=O)C1=C(C)NC(C)=C(C(=O)OC)C1c1ccccc1[N+](=O)[O-]", "Potency": "inconclusive [inhibitor, partial curve, poor fit]"}, {"compound": "N=C1N=C(N)c2cc3ccccc3cc21", "activity change": "inactive: 30.3% [at 8.54 µM]"}, {"compound": "CNCC[C@H](Oc1cccc2ccccc12)c1cccs1", "Potency": "inconclusive [inhibitor, single point]"}, {"compound": "CN(C)c1ccc2nc3ccc(=[N+](C)C)cc-3sc2c1", "activity change": "inactive: 22.1%"}, {"compound": "CC[C@]1(O)C[C@H]2CN(CCc3c([nH]c4ccccc34)[C@@](C(=O)OC)(c3cc4c(cc3OC)N(C=O)[C@H]3[C@@](O)(C(=O)OC)[C@H](OC(C)=O)[C@]5(CC)C=CCN6CC[C@]43[C@@H]65)C2)C1", "Potency": "active: 100 nM"}, {"compound": "COc1cc2nc(N3CCN(C(=O)C4CCCO4)CC3)nc(N)c2cc1OC", "note": "(stereo not given)", "Potency": "inactive"}, {"compound": "O=Nc1c(-c2c(O)[nH]c3cc(Br)ccc23)[nH]c2ccccc12", "Potency": "inconclusive [inhibitor, single point]"}, {"compound": "Oc1c(Br)cc(Br)c2cccnc12", "Potency": "inconclusive [inhibitor, single point]"}, {"compound": "O=C(CCCN1CCC(O)(c2ccc(Cl)cc2)CC1)c1ccc(F)cc1", "Potency": "inconclusive [inhibitor, partial curve, poor fit]"}, {"compound": "O=C(O)c1cc([N+](=O)[O-])ccc1NCCCc1ccccc1", "activity change": "inactive: 3.03% [at 9.63 µM]"}, {"compound": "Nc1ccc([N+](=O)[O-])cc1O", "Potency": "inconclusive [inhibitor, full curve]"}, {"compound": "COc1cc2nc(N3CCCN(C)CC3)nc(NC3CCN(Cc4ccccc4)CC3)c2cc1OC", "Potency": "inconclusive [inhibitor, partial curve, poor fit]"}, {"compound": "CC(=O)/C=C1\\C(=O)N(C)c2ccccc21", "Potency": "inconclusive [inhibitor, partial curve]"}, {"compound": "CC(C)c1ccc2oc3nc(N)c(C(=O)O)cc3c(=O)c2c1", "Potency": "inconclusive [inhibitor, single point]"}]}]}
